Test results as given in the supplement of paper PMC8728848.
The other results are listed elsewhere or left out.

What was measured:
Test in all cases: glycan array binding signal (z-score within array); higher = stronger binding
Settings in all cases: glycan notation: IUPAC condensed, linker removed
[1] = biological target: Gal3S(b1-3)[Fuc(a1-4)]GlcNAc
Outline: (§1)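 Negative Z-scores can be read as non-binding. The Z-score is calculated within each array and then averaged across arrays of one protein sequence at different concentrations or buffers and across linkers. Arrays, 3228 in all, were curated from the Consortium for Functional Glycomics database and kept only where the protein sequence was available.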

Gal3S(b1-4)Glc = biological target: Gal3S(b1-4)Glc
Outline: as §1

Gal3S(b1-4)Glc6S = biological target: Gal3S(b1-4)Glc6S
Outline: as §1

Gal3S(b1-4)GlcNAc = biological target: Gal3S(b1-4)GlcNAc
Outline: as §1

Gal3S(b1-4)GlcNAc6S = biological target: Gal3S(b1-4)GlcNAc6S
Outline: as §1

[2] = biological target: Gal3S(b1-4)[Fuc(a1-3)]Glc
Outline: as §1

[3] = biological target: Gal3S(b1-4)[Fuc(a1-3)]Glc6S
Outline: as §1

Gal3S4S(b1-4)GlcNAc = biological target: Gal3S4S(b1-4)GlcNAc
Outline: as §1

Gal3S6S(b1-4)GlcNAc = biological target: Gal3S6S(b1-4)GlcNAc
Outline: as §1

Gal3S6S(b1-4)GlcNAc6S = biological target: Gal3S6S(b1-4)GlcNAc6S
Outline: as §1

Gal4S(b1-4)GlcNAc = biological target: Gal4S(b1-4)GlcNAc
Outline: as §1

Gal4S6S(b1-4)GlcNAc = biological target: Gal4S6S(b1-4)GlcNAc
Outline: as §1

Gal6S(b1-3)GlcNAc = biological target: Gal6S(b1-3)GlcNAc
Outline: as §1

Gal6S(b1-3)GlcNAc6S = biological target: Gal6S(b1-3)GlcNAc6S
Outline: as §1

Gal6S(b1-4)Glc = biological target: Gal6S(b1-4)Glc
Outline: as §1

Gal6S(b1-4)Glc6S = biological target: Gal6S(b1-4)Glc6S
Outline: as §1

Gal6S(b1-4)GlcNAc = biological target: Gal6S(b1-4)GlcNAc
Outline: as §1

Gal6S(b1-4)GlcNAc6S = biological target: Gal6S(b1-4)GlcNAc6S
Outline: as §1

GalNAc(a1-3)Gal = biological target: GalNAc(a1-3)Gal
Outline: as §1

GalNAc(a1-3)GalNAc = biological target: GalNAc(a1-3)GalNAc
Outline: as §1

[4] = biological target: GalNAc(a1-3)GalNAc(b1-3)Gal(a1-4)Gal(b1-4)Glc
Outline: as §1

[5] = biological target: GalNAc(a1-3)GalNAc(b1-3)Gal(a1-4)Gal(b1-4)GlcNAc
Outline: as §1

GalNAc(b1-3)Gal = biological target: GalNAc(b1-3)Gal
Outline: as §1

[6] = biological target: GalNAc(b1-3)Gal(a1-4)Gal(b1-4)GlcNAc
Outline: as §1

[7] = biological target: GalNAc(b1-3)Gal(a1-4)Gal(b1-4)GlcNAc(b1-3)Gal(b1-4)Glc
Outline: as §1

[8] = biological target: GalNAc(b1-3)Gal(a1-6)Gal(b1-4)Glc
Outline: as §1

GalNAc(b1-3)GalNAc = biological target: GalNAc(b1-3)GalNAc
Outline: as §1

GalNAc(b1-4)Gal(b1-4)Glc = biological target: GalNAc(b1-4)Gal(b1-4)Glc
Outline: as §1

GalNAc(b1-4)GlcNAc = biological target: GalNAc(b1-4)GlcNAc
Outline: as §1

[9] = biological target: GalNAc(b1-4)GlcNAc(b1-2)Man(a1-3)[GalNAc(b1-4)GlcNAc(b1-2)Man(a1-6)]Man(b1-4)GlcNAc(b1-4)GlcNAc
Outline: as §1

B1: NanI (Corynebacterium diphtheriae), C6JSW7 (protein)
chain: MTNTLESNPMTTTTGALTITFATTCDGPLAHIPHHLDLNIIHGRIQGTTAHRRIDAEDPDGLDDGLPHHLCLSVDTTGTHLFIDGYEAFSTTQTEWFDTSELTLNPHGDLTIIDHQILNHAPTPRQARNLAPAAEPLVWFAGSHLSTRDTQRISHLTHGSLRLLMKTRGTGQGGVAFQAHTINGDLTLEIIDGTLIFSVRCHDEDYVRITAPGRWDDGQIYDVVIVCGRGATDIYVDGQQLIHSPGAAFFNDLSGELSVHIGTAASGVRLFGEVQSGMIYPHVFNHHQVQRLATVEPIATQALFDCLLDGAQSYRIPSLITTDSGVIIAGADKRVSIANDAPNDIDFVLRRSVDGGRTWQPPRTILQLPDTACVTDSVLLQDHTTGRIFAFLDQFPAGIGQPNAAFGTGFDADGNRIGHFADGSTCTMPREVDQLEASFFSDPHTAPPGIVFQHPSCHLWMLTSDDDGLTWSTPRDLTPDVKEEWMRFCGTSPGNGIQLQRDTHAGRLLIPMYYTKGDQFFAAALYSDDHGDTWHRGESPDLEMYESTLVEASDGSVLLWARNQHPSGAVAHARSTDGGHSWSQVTFNPNVPEIFSQPNALRVTNPDGIIFANASQLLPFRGRGVLRMSTNDGASWQHNRVFNPRHYVYQCMTQLPDGSIGLLWEREMQGLFFSIIPMTWIMQGYAL
In the case of B1, the “glycan array binding signal (z-score)” value [1] is reported as -0.788, the “glycan array binding signal (z-score)” value (Gal3S(b1-4)Glc) is reported as 0.343 and the “glycan array binding signal (z-score)” value (Gal3S(b1-4)Glc6S) is reported as -0.332. For the same binder, the “glycan array binding signal (z-score)” value (Gal3S(b1-4)GlcNAc) was 0.066, the “glycan array binding signal (z-score)” value (Gal3S(b1-4)GlcNAc6S) was 0.609 and the “glycan array binding signal (z-score)” value [2] was 1.09. The “glycan array binding signal (z-score)” value [3] was -0.197, the “glycan array binding signal (z-score)” value (Gal3S4S(b1-4)GlcNAc) was -0.68 and the “glycan array binding signal (z-score)” value (Gal3S6S(b1-4)GlcNAc) was 0.007. The “glycan array binding signal (z-score)” value (Gal3S6S(b1-4)GlcNAc6S) was -0.141, the “glycan array binding signal (z-score)” value (Gal4S(b1-4)GlcNAc) was -0.503 and the “glycan array binding signal (z-score)” value (Gal4S6S(b1-4)GlcNAc) was -0.979. The “glycan array binding signal (z-score)” value (Gal6S(b1-3)GlcNAc) was 0.53, the “glycan array binding signal (z-score)” value (Gal6S(b1-3)GlcNAc6S) was -0.717 and the “glycan array binding signal (z-score)” value (Gal6S(b1-4)Glc) was -0.205. The “glycan array binding signal (z-score)” value (Gal6S(b1-4)Glc6S) was -0.493, the “glycan array binding signal (z-score)” value (Gal6S(b1-4)GlcNAc) was -0.815 and the “glycan array binding signal (z-score)” value (Gal6S(b1-4)GlcNAc6S) was 0.977. The “glycan array binding signal (z-score)” value (GalNAc(a1-3)Gal) was -0.952, the “glycan array binding signal (z-score)” value (GalNAc(a1-3)GalNAc) was -0.302 and the “glycan array binding signal (z-score)” value [4] was -0.577. For the same binder, the “glycan array binding signal (z-score)” value [5] was -0.624, the “glycan array binding signal (z-score)” value (GalNAc(b1-3)Gal) was 0.025 and the “glycan array binding signal (z-score)” value [6] was -0.825. For the same binder, the “glycan array binding signal (z-score)” value [7] was -0.854, the “glycan array binding signal (z-score)” value [8] was 0.28 and the “glycan array binding signal (z-score)” value (GalNAc(b1-3)GalNAc) was -0.471. The “glycan array binding signal (z-score)” value (GalNAc(b1-4)Gal(b1-4)Glc) was 1.01, the “glycan array binding signal (z-score)” value (GalNAc(b1-4)GlcNAc) was -0.67 and the “glycan array binding signal (z-score)” value [9] was 0.628.
